Experimental data taken from PubChem BioAssay AID1159614 (National Center for Advancing Translational Sciences (NCATS), 2016).
Among all 45,000 compounds or so, about 65 (0.1%) were called active. Calls come from the whole dose curve; as a rule, active = well fitted activation curve with a large enough effect; inconclusive = small, poorly fitted or top-dose-only effect; inactive = no such curve, though single readings can be large or run the other way. Some of the results follow.

Biological target: Galactocerebrosidase (Homo sapiens) (UniProt P54803)
Chain of UniProt P54803 (P54803 whole entry, looked up): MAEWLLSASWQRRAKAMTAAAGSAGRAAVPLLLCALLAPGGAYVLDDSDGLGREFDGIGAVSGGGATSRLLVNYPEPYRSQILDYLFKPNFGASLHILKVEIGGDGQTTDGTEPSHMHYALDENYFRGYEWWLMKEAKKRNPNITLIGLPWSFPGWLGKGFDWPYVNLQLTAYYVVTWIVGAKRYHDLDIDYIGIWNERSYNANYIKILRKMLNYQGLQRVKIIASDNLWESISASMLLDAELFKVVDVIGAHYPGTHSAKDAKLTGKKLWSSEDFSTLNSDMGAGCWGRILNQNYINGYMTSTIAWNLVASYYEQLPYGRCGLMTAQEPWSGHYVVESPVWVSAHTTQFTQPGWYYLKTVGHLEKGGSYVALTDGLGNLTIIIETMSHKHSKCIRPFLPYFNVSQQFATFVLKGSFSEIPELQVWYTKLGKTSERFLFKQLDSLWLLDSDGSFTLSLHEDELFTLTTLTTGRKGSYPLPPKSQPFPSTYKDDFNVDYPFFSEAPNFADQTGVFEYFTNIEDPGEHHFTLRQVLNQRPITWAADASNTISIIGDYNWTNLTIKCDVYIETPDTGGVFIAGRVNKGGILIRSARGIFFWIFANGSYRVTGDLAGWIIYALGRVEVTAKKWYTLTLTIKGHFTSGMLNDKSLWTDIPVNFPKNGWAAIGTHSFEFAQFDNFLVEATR
Assay: A Novel Cell-Based Assay to Identify Small Molecules for B -Galactocerebrosidase; note: 0% is about no effect; nearly all actives have a fitted effect of over 65% in size
Conditions: 145M-Twi-hGALC-G270D cells, HMU-beta-Gal fluorescence, 48 h; series mostly up to 57.5 µM; activation: at the top concentration
Summary of the method: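 qHTS, 1536-well; 145M-Twi-hGALC-G270D cells (WT line also made) in DMEM/F12 + 10% FBS; compound incubation on live cells; HMU-β-gal 0.1 mM final, pH 5.2, NaTC; carbonate stop; fluorescence increase = enhanced residual activity.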

activation, inactive:
CCc1ccc(C(=O)c2cn(CC(=O)Nc3cccc(OC)c3)c3cc4c(cc3c2=O)OCO4)cc1 -19.9%
COc1ccc(C)cc1NC(=O)C1CCN(S(=O)(=O)c2cc(Br)cc3c2N(C(C)=O)CC3)CC1 -0.0027%
CCc1nn(CC(=O)N2CCCCC2)c(=O)c2cc3occc3n12 -13.1%
CCOC(=O)c1noc2ncn(CC(=O)Nc3cccc(C(F)(F)F)c3)c(=O)c12 -17.8%
CCOC(=O)C1=C(CS(=O)(=O)c2ccc(F)c(C)c2)NC(=O)NC1c1ccccc1OC (stereo not drawn) -17.2%
CCCc1nnc(NC(=O)c2nc(SCC)ncc2Cl)s1 -22%
Cc1cccc(NC(=O)CCn2cnc3ccccc3c2=O)c1 -0.166%
CCOc1ccc(NC(=O)N2CCN(c3nnc(C)c4c(C)n(-c5ccccc5)nc34)CC2)cc1 -6.1%
CN(C)/N=N/c1nc[nH]c1C(N)=O -15.8%
O=c1c(=O)n(-c2ccc(F)c(F)c2)ccn1Cc1ccc(F)cc1Cl -7.37%
CCOc1ccccc1NC(=O)CN(C)S(=O)(=O)c1ccc(C(=O)N2CCOCC2)s1 -14.5%
COc1ccc(C)cc1NC(=O)C1CCCN(c2ncnc3onc(C)c23)C1 (stereo not drawn) -14.7%
Cc1ccc2c(=O)cc(C(=O)Nc3sc4c(c3C(=O)NCC3CCCO3)CCC4)oc2c1 (stereo not drawn) -10.5%
Cc1oc(-c2ccccc2Cl)nc1CS(=O)(=O)CC(=O)NCc1ccc(F)cc1 -18.7%
CCC(C(=O)NCc1ccccc1OC)n1nc(C)n2c(cc3occc32)c1=O (stereo not drawn) -9.75%
CCCCn1c(=O)n(-c2cc(OC)ccc2OC)c(=O)c2c3c(sc21)CN(C(C)=O)CC3 -10.3%
COc1ccc(-n2nc(C(=O)Nc3cc(C)ccn3)c3c4ccccc4n(C)c3c2=O)cc1 -15.3%
CCOc1ccc(-n2nc3ccc(NC(=O)c4ccc(OC)c(Cl)c4)cc3n2)cc1 -8.63%
O=C(CC1N=C2c3ccccc3N=C(SCc3ccccc3Cl)N2C1=O)NCCc1ccccc1 (stereo not drawn) -8.87%
Cc1cc(Nc2cccc(Cl)c2)nc2ccc(NC(=O)c3cncc(Br)c3)cc12 -5.48%
CCOC(=O)C1=C(CN2CCN(c3ccccc3OC)CC2)NC(=O)NC1c1ccccc1 (stereo not drawn) -35%
O=C(CN1CCCN(Cc2ccccc2F)S1(=O)=O)Nc1ccc(F)c(Cl)c1 -9%
O=C(Nc1ccc(C(=O)O)c(O)c1)c1ccccc1 -12%
CC(C)NC(=O)N1[C@H](c2cccs2)[C@@H](C)C(=O)[C@@H](C)[C@@H]1c1cccs1 -11.8%
Cc1cc(C)cc(NC(=O)N2CCC(CN3CCOCC3)CC2)c1 -18.7%
CCOC(=O)Cn1c(=O)n(CC2CCCO2)c2nc(-c3ccccc3)nc(C(N)=O)c21 (stereo not drawn) -18.3%
COc1ccc(C(=O)Nc2ccc(N(C)Cc3ccccc3)c(C(=O)O)c2)cc1 -6.22%
CCc1cccc(C)c1NC(=O)Cn1nc(C)n2cccc2c1=O -13.8%
COC(=O)c1cc2oc(C)cc2n1CC(=O)Nc1ccc(C(C)C)cc1 -38.5%
CCCCNC(=O)c1ccc2c(=O)n(Cc3ccc(OC)cc3)c(=O)[nH]c2c1 -8.01%
COc1ccc(-c2nnc(SCC(=O)NCCC(C)C)nc2-c2ccc(OC)c(OC)c2)cc1OC -14.8%
Cc1ccc(CNCc2ccccc2Cl)s1 -16.3%
COCc1cc(C)nc2c1C(=O)NC(c1ccc(F)cc1)N2Cc1ccccc1 (stereo not drawn) -14.5%
CCOC(=O)c1c(C)oc2nc(C)nc(NCC3CCN(Cc4ccc(C)cc4)CC3)c12 -12.2%
Cc1ccccc1CSc1cn(CC(=O)N2CCCCC2)c2ccccc12 -9.65%
CC1Cc2ccccc2N1C(=O)CSc1nc2ccc(NC(=O)COc3ccccc3)cc2s1 (stereo not drawn) -24.2%
CC1=C(C(=O)NCc2cccc(F)c2)C2(CCCCC2)OC1=O 15.1%
N#Cc1c(C(F)(F)F)cc(-c2cccs2)nc1SCc1ccc(F)cc1 -16%
CCCCOC(=O)c1ccc(N)cc1 -11.5%
CCOC(=O)C(C)Sc1ccc2nnc(CCNS(=O)(=O)c3ccc(C)cc3)n2n1 (stereo not drawn) -9.65%
CCOc1ccc(CCNC(=O)c2oc(=O)c3ccccc3c2-c2ccc(C)cc2)cc1OCC -4.19%
Cc1ccc(NC(=O)CCS(=O)(=O)c2ccc(Br)s2)c(Br)c1 -8.85%
CC(C)(C)c1ccc(C(=O)NCCc2csc(-c3ccc(Cl)cc3)n2)cc1 -12.8%
Cc1nn(C)cc1CN(C)C(=O)c1cc(-c2ccccc2)nc2ccc(Br)cc12 -8.4%
O=C(Nc1cccc(C(F)(F)F)c1)c1cnn(-c2cccc(F)c2)c1C1CCNCC1 -19.8%
Cc1ccc(C)c(N2CCN(C(=O)CN3C(=O)COc4ccc(S(=O)(=O)N5CCCC5)cc43)CC2)c1 -23%
CCc1cccc(NC(=O)CN(c2ccc(C)c(C)c2)S(=O)(=O)c2ccsc2C(=O)OC)c1 2.68%
COc1ccc(C(=O)NCC(c2ccco2)S(=O)(=O)c2ccc(F)cc2)cc1 (stereo not drawn) -20.3%
CC(C)OCCCNc1ncnc2sc3c(c12)CCCC3 -35.9%
CCOC(=O)c1c(C)[nH]c(C)c1S(=O)(=O)N1CCC(C(=O)Nc2ccc(OCC)cc2)CC1 -8.55%
CCCCn1cc(S(=O)(=O)c2cc(C)ccc2C)c(=O)c2cc(F)c(N3CCC(C)CC3)cc21 -8.09%
Cc1ccc(C)c(Cn2c(=O)n(CCCCC(=O)NCc3ccc4c(c3)OCO4)c(=O)c3ccccc32)c1 -0.417%
CCc1ccccc1NC(=O)Nc1c(C)n(C)n(-c2ccccc2)c1=O -25.9%
CCCC(=O)Nc1cc2nn(-c3ccccc3)nc2cc1C -9.71%
CCOC(=O)c1ccc(N2C(=O)c3[nH]nc(-c4ccc(C)cc4)c3C2c2cccs2)cc1 (stereo not drawn) 1.72%
CCCc1nc2nc(C)c(NS(=O)(=O)c3ccc(CC(C)C)cc3)c(=O)n2[nH]1 -7.2%
CSc1ncc(C(=O)Nc2ccccc2C(F)(F)F)c(-c2ccccc2)n1 -11.5%
CCCCN(CCCC)CCCNC(=O)Cn1cc2c(n1)-c1c(oc(C(=O)N3CCCC3)c1C)CC2 -25.8%
CCCn1c(CCC(=O)Nc2cc(OC)cc(OC)c2)nc2cccnc21 -11.7%
CCCCOc1ccc(Cn2c(=O)sc3ccccc32)cc1OC -12.7%
COC(=O)c1scc(-c2ccc(C)cc2)c1S(=O)(=O)Nc1cc(Cl)c(OC)cc1OC -12.9%
CCOC(=O)c1[nH]cnc1C(=O)Nc1cccc(OC)c1 -20.8%
Cc1ccccc1CCNC(=O)c1ccc2c(c1)nc1n2CCOC1 -0.565%
CCCn1c(CCC(=O)Nc2cc(C(=O)OC)cc(C(=O)OC)c2)nc2cccnc21 -16.1%
CCSc1ncc(Cl)c(C(=O)Nc2nc3ccc(S(C)(=O)=O)cc3s2)n1 3.91%
CCCN1CCN(c2nnc(-n3cccc3C(=O)Nc3cc(Cl)ccc3C)s2)CC1 -10.7%
COc1ccc(-n2c(=O)c3sc4ccccc4c3n(C)c2=O)cc1 -5.13%
Cc1ccc(NC(=O)C2CCCN(S(=O)(=O)c3cccc4nsnc34)C2)cc1C (stereo not drawn) -19.2%
Cc1cc(NC(=O)CCn2c(=O)c3cccn3c3cccnc32)ccc1Br 2.11%
CCC(=O)N1c2ccccc2CC1C(=O)NCCc1cc(OC)c(OC)c(OC)c1 (stereo not drawn) -3.12%
NC(=O)Cc1cccc(C(=O)c2ccccc2)c1N -18.2%
CCOC(=O)Cc1ccc(NC(=O)N2CCSc3ccccc32)cc1 -9.73%
Cc1ccc(-c2nc(CS(=O)CC(=O)NCc3ccccc3Cl)c(C)o2)cc1 (stereo not drawn) -15.6%
O=c1ccc2cc(S(=O)(=O)Nc3ccc(F)c(Cl)c3)ccc2[nH]1 -8.84%
CCOc1ccc2nc(SCC(=O)Nc3ccc(F)cc3)nc(-c3ccccc3)c2c1 14.5%
COCCNC(=O)C1CCN(C(=O)c2cc3sccc3n2Cc2ccc(Cl)cc2)CC1 10.6%
CCCN(CCC)CCCNC(=O)C1CCCN(Cc2nc(-c3ccc(Cl)cc3)oc2C)C1 (stereo not drawn) 17.9%
COc1ccccc1NC(=O)CSC1=Nc2ccccc2C2=NC(CCC(=O)NCc3ccco3)C(=O)N12 (stereo not drawn) -10.6%
O=S(=O)(c1ccc(Cl)cc1)c1nc(-c2cccs2)oc1SCc1ccc(F)cc1 -13.5%
COc1cccc(CNC(=O)Cc2c(C)c3c(cc(C)c4c(C)c(C)oc43)oc2=O)c1 -9.29%
Cn1nnc2c(NCc3ccc(Cl)cc3)ncnc21 -11.6%
Cc1ccc(Cn2c(=O)n(CCc3ccc(Cl)cc3)c(=O)c3ccccc32)cc1 -16.2%
CCc1ccc(CNC(=O)c2cc3n(n2)CCCN(Cc2ccccc2)C3=O)cc1 -14.9%
COc1ccc(NC(=O)Cn2c(=O)n(Cc3ccccc3OC)c(=O)c3cccnc32)cc1Cl -21%
Cc1ccc(-n2ncc3c(NC(C)c4ccccc4)ncnc32)cc1 (stereo not drawn) -1.38%
CC1=C(C(=O)Nc2ccc(Cl)cc2)C(c2ccccc2F)n2nc(SCc3cccc(Cl)c3)nc2N1 (stereo not drawn) -6.97%
COc1ccc(OC)c(NC(=O)C2Cc3ccccc3CN2S(=O)(=O)c2ccc(F)cc2)c1 (stereo not drawn) -5.17%
Cc1cccc(Nc2nc(N)nc(N)c2S(=O)(=O)c2ccccc2)c1 -5.57%
O=C(c1ccccc1F)N1c2ncnn2C2(CCCCC2)[C@@H]2CCCC[C@@H]21 -12.3%
Cc1cccc(NC(=O)CSc2ncc(-c3ccccc3)[nH]2)c1C -12.6%
CCSc1ncc(Cl)c(C(=O)Nc2nnc(CC)s2)n1 -13.4%
O=C(C1CCN(c2ncnc3c2nc2n3CCCCC2)CC1)N1CCN(c2ccccc2F)CC1 -2.44%
CCOc1ccc2oc(=O)cc(CN3CCN(C(=O)c4ccc(OC)c(OC)c4)CC3)c2c1 2.48%
Cc1c(C)n(Cc2ccc(F)cc2)c2ccc(C(=O)N3CCN(c4ccc(F)cc4)CC3)cc12 -12.9%
COc1ccc(C2=C(C)C(N3CCC(C(=O)Nc4ccccc4F)CC3)=NS2(=O)=O)cc1 -0.75%
CCC(C(=O)NCCc1ccccc1)n1nc(C)c2sc3ccccc3c2c1=O (stereo not drawn) 7.2%
Cc1ccc(-n2c(=O)c3c4c(sc3n(Cc3cc(=O)n5cc(Cl)ccc5n3)c2=O)CCC4)cc1C -16.3%
CCOC(=O)c1ccccc1NC(=O)CN(c1cccc(C)c1C)S(=O)(=O)c1ccccc1 -1.04%
